Target: T1, native human alpha-1-antitrypsin (purified AAT from human plasma) (human, UniProt P01009, glycosylated)
T1 construct: mature; also called native AAT
Assay: band shift assay: AAT sample with 100 ng PPE, 37 C, 15 min; covalent-linked complex seen by SDS-PAGE and Western blot

binding result: binds
B1: porcine pancreatic elastase (enzyme, UniProt P00772 27-266, looked up)
chain: VVGGTEAQRNSWPSQISLQYRSGSSWAHTCGGTLIRQNWVMTAAHCVDRELTFRVVVGEHNLNQNDGTEQYVGVQKIVVHPYWNTDDVAAGYDIALLRLAQSVTLNSYVQLGVLPRAGTILANNSPCYITGWGLTRTNGQLAQTLQQAYLPTVDYAICSSSSYWGSTVKNSMVCAGGDGVRSGCQGDSGGPLHCLVNGQYAVHGVTSFVSRLGCNVTRKPTVFTRVSAYISWINNVIASN
notes: also called PPE

Reference: patent EP2294930A2 (Ventria Bioscience, dated 2011)
